Source: the supplement of paper PMC10369915
Some of the results follow. No stated cut-off is given here; in the data, active = 3.2 or more and inactive = the rest. Most of these values are background signal.

B1: VGFR2_HUMAN_1214 (peptide)
chain: VCDPKFHYDNTAGIS
B2: VAV_HUMAN_826 (peptide)
chain: GWWRGEIYGRVGWFP
B3: VGFR1_HUMAN_1213 (peptide)
chain: GSSDDVRYVNAFKFM
B4: VIL1_HUMAN_60 (peptide)
chain: KTASSLSYDIHYWIG
B5: VPP1_HUMAN_364 (peptide)
chain: TNQTPPTYNKTNKFT
B6: VIL1_HUMAN_46 (peptide)
chain: SFFDGDCYIILAIHK
B7: VGFR1_HUMAN_1327_YA (peptide)
chain: CCSPPPDYNSVVLAS
B8: WASF3_HUMAN_486 (peptide)
chain: SRRIAVEYSDSDDDS
B9: VINC_HUMAN_822 (peptide)
chain: KSFLDSGYRILGAVA
B10: VGFR2_HUMAN_1319 (peptide)
chain: DDTDTTVYSSEEAEL
B11: VGFR1_HUMAN_1169 (peptide)
chain: VQQDGKDYIPINAIL
B12: UGGG2_HUMAN_1289 (peptide)
chain: AKEYGFRYELVQYRW
B13: BCAR1_HUMAN_664 (peptide)
chain: EGGWMEDYDYVHLQG
B14: UFO_HUMAN_698 (peptide)
chain: FGLSKKIYNGDYYRQ
B15: VDAC3_HUMAN_67 (peptide)
chain: TKYKVCNYGLTFTQK
B16: UFO_HUMAN_702_YA (peptide)
chain: KKIANGDYARQGRIA
B17: VGFR3_HUMAN_833_YA (peptide)
chain: EQCEALSYDASQWEF
B18: UTRO_HUMAN_4 (peptide)
chain: GGGGMAKYGEHEASP
B19: VIR_HUMAN_914 (peptide)
chain: CIPNLIEYVKQNIDN
B20: VAV1_HUMAN_142 (peptide)
chain: SVGDEDIYSGLSDQI
B21: VGFR1_HUMAN_1333 (peptide)
chain: DYNSVVLYSTPPIGG
B22: VAV_HUMAN_844_YA (peptide)
chain: VEEDASEYCGGGGGG
B23: VGFR1_HUMAN_1242 (peptide)
chain: ATSMFDDYQGDSSTL
B24: VIME_HUMAN_61 (peptide)
chain: ASSPGGVYATRSSAV
B25: VDAC1_HUMAN_67 (peptide)
chain: TKYRWTEYGLTFTEK
B26: UBP32_HUMAN_1173 (peptide)
chain: SCAWCPWYRFCRGCK
B27: UBA1_HUMAN_55_YA (peptide)
chain: ADIDEGLYSRQLAVL
B28: BCLF1_HUMAN_383 (peptide)
chain: EDQEALDYFSDKESG
B29: VINC_HUMAN_537 (peptide)
chain: ANVMMGPYRQDLLAK
B30: VWA1_HUMAN_83 (peptide)
chain: VHVGSRPYTEFPFGQ
B31: USP9X_HUMAN_2556 (peptide)
chain: GQRAQENYEGSEEVS
B32: VGFR1_HUMAN_1309 (peptide)
chain: EGKRRFTYDHAELER
B33: UMPS_HUMAN_37 (peptide)
chain: SGLSSPIYIDLRGIV
B34: BCLAF1_HUMAN_408 (peptide)
chain: DTEETEDYRQFRKSV
B35: VGFR3_HUMAN_1333_YA (peptide)
chain: ARGGQVFYNSEAGEL
B36: VAV2_HUMAN_142 (peptide)
chain: TENDDDVYRSLEELA

The binders below were run against SHP2 C-SH2 domain E139D (assay: enrichment score (SH2-bound / input frequency) (ratio); bacterial display of known human phosphotyrosine sites (pTyr-Var adds point mutants) read by sequencing; higher = stronger binding; tyrosines were phosphorylated by kinases first). Conditions: peptide library: Human pTyr.
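Further: displayed peptides selected on beads carrying the immobilized SH2 domain, with library peptides lacking any tyrosine serving as negative controls.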

Enrichment score, inactive:
B1 1.05
B2 2.52
B4 1.59
B5 1.32
B6 1.62
B7 0.705
B8 1.26
B9 1.11
B10 1.06
B11 1.13
B12 2.1
B13 0.724
B14 1.33
B15 1.11
B16 1.03
B17 1.33
B18 2.11
B19 1.27
B20 1.04
B21 0.772
B22 0.987
B23 0.43
B24 0.632
B25 1.39
B26 0.583
B27 0.717
B28 1.5
B29 0.553
B30 0.648
B31 1.37
B32 0.746
B33 1.86
B34 1.09
B35 0.577
B36 1.08

Enrichment score, active:
B3 3.69

The binders below were run against SHP2 C-SH2 domain wild-type in the same assay as above. Conditions: peptide library: Human pTyr.

Enrichment score, active:
B3 6.38

Enrichment score, inactive:
B1 1.06
B2 2.3
B4 1.69
B5 0.927
B6 1.91
B7 0.67
B8 1.21
B9 1.01
B10 1.1
B11 0.946
B12 1.91
B13 0.635
B14 1.24
B15 1.26
B16 0.836
B17 1.18
B18 0.684
B19 1.19
B20 0.812
B21 0.734
B22 0.798
B23 0.498
B24 0.656
B25 1.35
B26 0.387
B27 0.58
B28 1.13
B29 0.529
B30 0.621
B31 0.812
B32 0.805
B33 1.58
B34 0.785
B35 0.521
B36 1.24

The binders below were run against SHP2 N-SH2 domain L43F in the same assay as above. Conditions: peptide library: Human pTyr.

Enrichment score, inactive:
B1 0.84
B2 2.16
B3 1.76
B4 1.68
B5 1.06
B6 1.65
B7 0.616
B8 1.4
B9 1.04
B10 1.06
B11 1.15
B12 1.66
B13 0.728
B14 1.48
B15 1.23
B16 0.793
B17 1.26
B18 0.548
B19 1.95
B20 0.794
B21 0.871
B22 1.13
B23 0.408
B24 0.622
B25 1.19
B26 0.478
B27 0.762
B28 1.06
B29 0.612
B30 0.776
B31 0.911
B32 0.784
B33 1.28
B34 0.806
B35 0.498
B36 0.847

These binders were tested against SHP2 N-SH2 domain T42A in the same assay as above. Conditions: peptide library: Human pTyr.

Enrichment score, active:
B3 3.3

Enrichment score, inactive:
B1 1.11
B2 2.4
B4 1.53
B5 0.78
B6 1.87
B7 0.625
B8 0.959
B9 1.1
B10 1.06
B11 1.06
B12 1.81
B13 0.694
B14 1.09
B15 1.57
B16 0.782
B17 1.16
B18 0.652
B19 1.51
B20 0.854
B21 0.741
B22 0.874
B23 0.485
B24 0.581
B25 1.53
B26 0.475
B27 0.562
B28 1.22
B29 0.618
B30 0.704
B31 0.636
B32 0.863
B33 1.84
B34 0.864
B35 0.62
B36 1.09

Each binder was assayed against SHP2 N-SH2 domain T52S in the same assay as above. Conditions: peptide library: Human pTyr.

Enrichment score, inactive:
B1 1.07
B2 2.83
B3 1.59
B4 1.63
B5 1.07
B6 1.92
B7 0.852
B8 1.03
B9 2.88
B10 1.07
B11 0.97
B12 2.16
B13 0.662
B14 1.35
B15 1.51
B16 0.935
B17 1.39
B18 0.727
B19 1.49
B20 0.596
B21 0.743
B22 0.663
B23 0.468
B24 0.568
B25 1.2
B26 0.496
B27 0.708
B28 1.51
B29 0.657
B30 0.666
B31 1.01
B32 0.882
B33 1.97
B34 0.973
B35 0.549
B36 1.1

These binders were tested against SHP2 N-SH2 domain wild-type in the same assay as above. Conditions: peptide library: Human pTyr.

Enrichment score, inactive:
B1 1.24
B3 0.912
B4 2.19
B5 0.98
B6 2
B7 0.809
B8 1.24
B9 1.22
B10 1.21
B11 1.12
B12 2.29
B13 0.771
B14 1.39
B15 1.35
B16 1.2
B17 1.58
B18 0.691
B19 1.84
B20 0.917
B21 0.844
B22 0.951
B23 0.528
B24 0.584
B25 1.97
B26 0.489
B27 0.742
B28 1.29
B29 0.822
B30 0.686
B31 0.973
B32 0.855
B33 1.9
B34 0.828
B35 0.604
B36 1.31

Enrichment score, active:
B2 3.4
